Laboratory results taken from publication PMC4336329 (PLoS ONE, 2015).
Among all 310,000 compounds or so, about 14,000 (4.5%) showed an effect of 50% or more. Effects have a minus sign here. The list shows a part of the results.

The molecules below were run against human ether-à-go-go-related gene (hERG) potassium channel (human, UniProt Q12809) (assay: primary screen, population patch clamp on CHO cells stably expressing hERG).
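Also: peak tail current of the secondary pulse compared with the same well before compound.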

Sequence of human ether-à-go-go-related gene (hERG) potassium channel (Q12809 whole entry, looked up): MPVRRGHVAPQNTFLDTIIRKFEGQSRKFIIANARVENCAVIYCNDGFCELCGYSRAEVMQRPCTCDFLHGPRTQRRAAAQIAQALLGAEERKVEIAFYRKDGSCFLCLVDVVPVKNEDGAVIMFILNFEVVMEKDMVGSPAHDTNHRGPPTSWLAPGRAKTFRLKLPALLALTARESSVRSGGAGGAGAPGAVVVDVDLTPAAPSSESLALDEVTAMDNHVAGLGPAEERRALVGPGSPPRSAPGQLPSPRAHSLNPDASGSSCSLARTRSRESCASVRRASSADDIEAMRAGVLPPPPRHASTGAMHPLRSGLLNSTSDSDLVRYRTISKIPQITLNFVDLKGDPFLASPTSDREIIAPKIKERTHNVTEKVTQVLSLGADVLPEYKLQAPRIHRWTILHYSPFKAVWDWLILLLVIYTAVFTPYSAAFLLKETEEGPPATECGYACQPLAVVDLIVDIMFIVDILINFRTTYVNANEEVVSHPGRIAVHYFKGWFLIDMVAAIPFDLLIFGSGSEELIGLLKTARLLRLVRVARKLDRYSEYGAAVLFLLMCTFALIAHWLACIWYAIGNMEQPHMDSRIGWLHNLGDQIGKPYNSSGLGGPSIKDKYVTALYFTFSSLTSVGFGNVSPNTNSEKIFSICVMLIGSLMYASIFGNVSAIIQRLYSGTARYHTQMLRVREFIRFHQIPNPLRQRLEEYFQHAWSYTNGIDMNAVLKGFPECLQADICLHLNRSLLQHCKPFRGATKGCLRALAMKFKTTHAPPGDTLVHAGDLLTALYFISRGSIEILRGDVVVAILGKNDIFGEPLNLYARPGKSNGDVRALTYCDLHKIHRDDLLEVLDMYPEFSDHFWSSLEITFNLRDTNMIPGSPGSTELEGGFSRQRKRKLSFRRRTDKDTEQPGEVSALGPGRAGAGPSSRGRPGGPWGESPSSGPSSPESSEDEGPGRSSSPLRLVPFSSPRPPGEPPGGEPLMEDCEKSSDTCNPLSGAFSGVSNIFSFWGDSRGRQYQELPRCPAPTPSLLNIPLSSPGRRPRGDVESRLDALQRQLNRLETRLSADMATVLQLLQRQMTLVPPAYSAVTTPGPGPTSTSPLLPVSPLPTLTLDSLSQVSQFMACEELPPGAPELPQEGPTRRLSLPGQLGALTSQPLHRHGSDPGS

Point of comparison: COc1ccc(NS(=O)(=O)c2ccc(N3C(=O)CCC3=O)cc2)cc1, “hERG current change (%, negative = inhibition) at 10uM” value 7.07%. Against it:
- Cc1ccccc1N=C/C=C1\N(C)c2ccccc2C1(C)C — lower, -70.7%
- CC(=O)c1ccccc1NC(=O)CN1C(=O)CS/C1=C\c1nc(-c2ccc(C)cc2)cs1 — higher, 10.3%
- O=C(N1CCCCC1)C1(c2ccccc2)CCOCC1 — higher, 11.6%
- COc1ccc(OC(=O)c2ccc3nsnc3c2)cc1 — lower, -6.32%
- O=C(c1cccc(C(F)(F)F)c1)C1CCCN(C(=O)CN2CCCC2=O)C1 (centres unmarked) — lower, 6.18%
- C=CCOc1ccccc1CNCc1cccnc1.Cl — higher, 12.6%
- CCCCc1c(C)nc2c(OC)cccc2c1SCCC(=O)O — lower, -3.67%
- COC(=O)C1=C(C)N(c2ccc(Br)cc2)C(=O)/C1=C\c1ccco1 — lower, 2.22%
- COc1cccc(N2CCN(c3ncnc4c3[nH]c3ccccc34)CC2C)c1 (centres unmarked) — lower, -11.7%
- CCOC(=O)/C=c1\s/c(=C\c2ccc3cc(OC)ccc3c2)c(=O)n1CC(=O)NCc1ccc2c(c1)OCO2 — higher, 44%
- COc1ccc(NC(=O)CCCNC(=O)c2ccc(Cl)cc2)c(OC)c1 — lower, -11.6%
- CCOc1ccccc1C(=O)NC(C(=O)Nc1cccnc1)C(C)C (centres unmarked) — lower, -20.3%
- CCCCOc1nc2ccccc2nc1C(C#N)S(=O)(=O)c1ccccc1 (centres unmarked) — lower, 0.44%
- N#Cc1c(SCc2ccccc2)nc(N2CCOCC2)c2c1CCCC2 — lower, -3.29%
- NC(=O)CC1NC(=O)c2ccccc21 (centres unmarked) — higher, 12.5%
- O=C(NCCN1CCN(c2ccccc2F)CC1)C1CC(=O)N(C2CCCC2)C1 (centres unmarked) — lower, 2.24%
- COc1ccc(CN2CCC(CO)(Cc3ccccc3)CC2)cc1Cn1cccn1 — lower, -76.5%
- COCCCC1CCN(C(=O)C2CCC(=O)N(C3CCCCCC3)C2)CC1 (centres unmarked) — lower, 3.84%
- CC(=O)c1cccc(N/C=C\C(=O)c2ccc(C)cc2)c1 — higher, 13.2%
- CC(C)C(=O)Nc1ccc(C(=O)NNC(=O)c2ccco2)cc1 — higher, 7.75%
- COC(=O)c1cc(-c2cccs2)nc2ccccc12 — lower, 3.59%
- CCN1CCN(CCNC(=O)C2CCN(Cc3nc(-c4ccc(Cl)cc4)oc3C)CC2)CC1 — lower, 1.11%
- Cc1cc(C)n(-c2nc3c(c(=O)[nH]c(=O)n3C)n2CCc2ccccc2)n1 — lower, -19.4%
- COc1ccc(-n2c(Cn3c(=O)sc4ccccc43)nnc2SCC(N)=O)cc1 — lower, -4.31%
- COc1cc(/C=C(\NC(C)=O)C(=O)O)cc(OC)c1OC — higher, 12.5%
- COc1ccccc1N1CCN(C(=O)C2CCN(S(=O)(=O)c3ccc4c(c3)CC(C)N4C(C)=O)CC2)CC1 (centres unmarked) — higher, 8.94%
- COC(=O)c1sc2ncn(-n3c(C)ccc3C)c(=O)c2c1C — higher, 19.7%
- O=C1c2ccccc2C(=O)N1CCCCCCc1ccccc1 — higher, 10.5%
- S=C(NCCc1ccccc1)N1CCN(C2CCCCC2)CC1 — lower, -63.4%
- O=C(O)c1ccccc1OCCOc1ccccc1C(=O)O — higher, 23.9%
- CCOc1ccc2ccccc2c1/C=N/NC(=O)c1cc(C)[nH]n1 — higher, 8.11%
- COc1ccc2c(c1OC)C(=O)N1C2SC(C)(C)[C@H]1C(=O)NCC(C)C (some centres unmarked) — higher, 21.9%
- O=C(CN(Cc1ccccc1)S(=O)(=O)c1ccc2c(c1)OCCO2)N/N=C/c1ccc(F)cc1 — lower, 3.7%
- Cc1cc(Cl)ccc1OCC(=O)Nc1ccccc1CO — lower, 3.7%
- Cc1cc(C)nc(NS(=O)(=O)c2ccc(NC(=O)Cc3ccccc3F)cc2)n1 — lower, 4.74%
- Cc1cccc(C)c1NC(=O)Nc1cccs1 — higher, 20.7%
- COc1ncccc1C(=O)N1CCCC(C(=O)c2cc(F)ccc2F)C1 (centres unmarked) — lower, -9.02%
- Cc1cccc(NC(=O)CCN2CCC(C(N)=O)CC2)c1 — higher, 9.57%
- Cc1cc(C)c2[nH]c(=O)c(CN(CC3CCCO3)C(=S)Nc3ccccc3)cc2c1 (centres unmarked) — lower, 2.37%
- CCc1cccc(C)c1NC(=O)CSc1nc(C)c(C)o1 — higher, 17.2%
- CCOC(=O)c1cccc(NC(=O)COC)c1 — higher, 13.5%
- COc1ccc(C2SCC(=O)N2c2nc3ccccc3s2)cc1 (centres unmarked) — higher, 10.1%
- CN(CC(=O)NCc1ccc(F)cc1)Cc1ccc(Br)cc1 — lower, -35.5%
- Cc1cccc(NC(=O)c2cccc(N3C(=O)CCC3=O)c2)c1 — lower, -3.89%
- CC(OC(=O)Cn1[nH]c(=O)c2ccccc2c1=O)C(=O)Nc1cccc(Cl)c1 (centres unmarked) — lower, -17.2%
- COc1ccc(-c2cc(-c3ccc(O)cc3)nc(N)c2C#N)cc1OC — lower, -12%
- Cc1ccc(-n2nnnc2-c2ccco2)cc1 — lower, -2.37%
- COc1ccc(-c2ccc3c(c2)S(=O)(=O)c2cccc(C(=O)NC4CCCCC4)c2C3=O)cc1OC — higher, 19.3%
- Cc1ccccc1C(=O)NCC(=O)OCC(=O)NC(C)C1CC2CCC1C2 (centres unmarked) — lower, -6.52%
- COC(CNC(=O)C(=O)NCC1CCCN1S(=O)(=O)c1cccs1)OC (centres unmarked) — lower, -5.67%
- COCCNC(=O)CCc1nc(-c2ccccc2)no1 — higher, 13.9%
- Cc1ccc2c(c1)CCCN2CC(=O)N(C)c1c(N)n(Cc2ccccc2)c(=O)[nH]c1=O — higher, 9.08%
- CN(Cc1ccccc1)C1=CC(=[N+]2CCCC2)CC(C)(C)C1.[I-] — lower, -55.4%
- O=C(OCc1cccc([N+](=O)[O-])c1)c1ccc2ccccc2n1 — higher, 7.33%
- O=C(NCCC1=CCCCC1)C1CCN(C(=O)c2ccc(Cl)cc2)CC1 — lower, -35.7%
- O=C(/C=C/c1ccc(Cl)c(Cl)c1)Nc1cccnc1 — lower, -0.371%
- CNC(=S)SCCOc1ccccc1 — lower, -4.52%
- COc1ccc(OC)c(S(=O)(=O)N2CCCC(C(=O)N3CCCCCC3)C2)c1 (centres unmarked) — lower, -9.84%
- O=C(COc1ccc2ccc(=O)oc2c1)N1CCN(C(=O)C2COc3ccccc3O2)CC1 (centres unmarked) — lower, -46.2%
- CCOC(=O)N1CCN(C(=O)C2CCN(S(=O)(=O)c3ccc(Cl)cc3)CC2)CC1 — lower, -48.7%
- CCN(CC)S(=O)(=O)c1ccc(C(=O)OCCN2C(=O)CCC2=O)cc1 — lower, -7.82%
- O=C(O)c1cc2nc3c(c(C(F)(F)F)n2n1)CCc1ccccc1-3 — lower, 6.54%
- CN(C)c1nc2c(c(=O)[nH]c(=O)n2C)n1CCOc1ccccc1 — higher, 13.8%
- O=C(NCc1ccco1)c1cnn2c1NC(c1ccccc1)CC2C(F)(F)F (centres unmarked) — lower, -2.23%
- O=C(CCNC(=O)c1ccc(Cl)cc1)Nc1ccc(Cl)cc1F — higher, 13.6%
- O=C(Cn1c(C(F)(F)F)nc2ccccc21)N1CCCC1 — lower, -2.97%
- O=C1CCCC2=C1C(c1cccc(O)c1)C1=C(N2)c2ccccc2C1=O (centres unmarked) — lower, 1.67%
- CCCCCCCCCCCC(=O)NC(C(=O)O)C(O)c1ccccc1 (centres unmarked) — lower, 6.54%
- Cc1ccc(-c2nnn(CC(=O)N(CCN3CCOCC3)C(C(=O)NC3CCCC3)c3ccncc3)n2)o1 (centres unmarked) — higher, 7.82%
- CCOC(=O)c1sc(NC(=O)C(CC)Sc2nccn2C)nc1C (centres unmarked) — lower, 2.94%
- O=C(CSc1nncs1)NC(=O)NCc1ccco1 — higher, 20.2%
- CCOC(=O)C1=C(c2ccccc2)N=C2SCC(=O)N2C1c1ccc(OCC)c(OCC)c1 (centres unmarked) — lower, 6.45%
- COc1ccccc1C(=O)Nc1ccnn1C1CCN(Cc2cnn(C)c2)CC1 — lower, -55.6%
- O=C(c1cn(Cc2ccccc2)nc1-c1cccnc1)N1CCN(Cc2ccccc2)CC1 — lower, -33.5%
- O=C(CN1CCC(NC(=O)c2ccccc2F)CC1)NCc1ccc(F)cc1 — lower, -24.6%
- CC(=O)NCCc1nc2ccccc2n1CCOc1ccc(C)cc1 — lower, -12.9%
- COc1ccc(NC(=O)C(NC(=O)c2ccccc2)C(C)C)cc1 (centres unmarked) — lower, -7.86%
- CC(NC(=O)COc1ccccc1F)C1CC2CCC1C2 (centres unmarked) — higher, 18.5%
- O=[N+]([O-])c1cccc(C(O)C23CN4CN(CN(C4)C2)C3)c1 (centres unmarked) — lower, -1.53%
- COc1ccc(C(C)=O)cc1COC(=O)Cc1n[nH]c(=O)c2ccccc12 — lower, -20.8%
- Cc1ccccc1CC(=O)N1CCN(S(=O)(=O)c2cccs2)CC1 — lower, -9.48%
- COc1ccc(CN(C(=O)c2snc(C(N)=O)c2N)C(C)C(=O)NCc2ccc(F)cc2)cc1 (centres unmarked) — lower, -15.1%
- CCN1CCN(c2nc(-c3ccccc3)nc3ccccc23)CC1 — lower, -63%
- CCCN(CCC)CCNC(=O)c1cc2c(=O)n(CC)c3ccccc3c2s1 — lower, -17.3%
- CCOC(=O)C1CCN(C(=O)Cc2c(C(=O)O)[nH]c3ccccc23)CC1 — lower, 4.19%
- C=CCc1ccc(OCCOCCOc2cccc3cccnc23)c(OC)c1 — lower, -29.3%
- Cc1ccn(C(CC(=O)c2ccc(Br)cc2)C(=O)O)n1 (centres unmarked) — lower, 1.89%
- Cc1c(NS(=O)(=O)c2cccs2)c(=O)n(-c2ccccc2)n1C — lower, -7.5%
